Measurements from article PMC4336329 (PLoS ONE, 2015).
About 14,000 (4.5%) of roughly 310,000 compounds showed an effect of 50% or more. Effects have a minus sign here. Some of the results follow.

Target: human ether-à-go-go-related gene (hERG) potassium channel (human, UniProt Q12809)
Test: primary screen, population patch clamp on CHO cells stably expressing hERG
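Also: peak tail current of the secondary pulse compared with the same well before compound.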

human ether-à-go-go-related gene (hERG) potassium channel, sequence (Q12809 whole entry, looked up): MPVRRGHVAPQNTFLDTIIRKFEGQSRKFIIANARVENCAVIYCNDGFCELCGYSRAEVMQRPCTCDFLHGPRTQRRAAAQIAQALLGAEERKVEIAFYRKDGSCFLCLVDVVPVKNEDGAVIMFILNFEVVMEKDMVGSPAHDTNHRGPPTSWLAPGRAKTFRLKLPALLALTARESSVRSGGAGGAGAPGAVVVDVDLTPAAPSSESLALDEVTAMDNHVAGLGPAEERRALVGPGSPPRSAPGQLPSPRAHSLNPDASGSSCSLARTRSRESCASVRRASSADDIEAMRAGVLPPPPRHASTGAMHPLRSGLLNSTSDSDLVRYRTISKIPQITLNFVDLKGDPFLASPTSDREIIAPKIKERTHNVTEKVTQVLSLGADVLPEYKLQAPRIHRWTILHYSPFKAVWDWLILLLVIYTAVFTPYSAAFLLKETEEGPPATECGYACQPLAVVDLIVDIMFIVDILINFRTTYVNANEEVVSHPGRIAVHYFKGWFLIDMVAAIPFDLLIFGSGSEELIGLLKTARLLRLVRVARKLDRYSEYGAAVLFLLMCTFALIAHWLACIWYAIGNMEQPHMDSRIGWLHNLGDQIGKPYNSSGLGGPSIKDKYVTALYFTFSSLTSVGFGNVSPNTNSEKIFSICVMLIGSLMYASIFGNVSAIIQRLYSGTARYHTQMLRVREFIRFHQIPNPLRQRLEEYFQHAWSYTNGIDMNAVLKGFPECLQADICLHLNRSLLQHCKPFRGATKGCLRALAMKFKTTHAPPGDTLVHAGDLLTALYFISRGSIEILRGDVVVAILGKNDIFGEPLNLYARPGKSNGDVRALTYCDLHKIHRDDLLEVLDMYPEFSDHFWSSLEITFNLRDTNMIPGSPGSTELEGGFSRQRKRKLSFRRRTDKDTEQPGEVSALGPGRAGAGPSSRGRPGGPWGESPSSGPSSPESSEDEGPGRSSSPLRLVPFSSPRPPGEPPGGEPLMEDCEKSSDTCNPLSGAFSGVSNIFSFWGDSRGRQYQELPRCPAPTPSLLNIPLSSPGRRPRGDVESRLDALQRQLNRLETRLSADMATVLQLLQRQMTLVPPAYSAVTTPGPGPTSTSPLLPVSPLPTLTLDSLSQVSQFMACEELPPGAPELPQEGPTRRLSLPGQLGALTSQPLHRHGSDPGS

Structure (SMILES)	hERG current change (%, negative = inhibition) at 10uM [%]
Cc1ccc(C2NC(=O)NC3=C2CCc2ccccc23)cc1 (centres unmarked)	2.59
CC(=O)N1N=C(c2ccco2)CC1c1ccc(Cl)o1 (centres unmarked)	4.56
Cn1c(=O)[nH]c(=O)c2c1nc(N1CCOCC1)n2CCSc1nc2ccccc2[nH]1	11.6
CCOc1ccc(N(CC(=O)NC(C(C)C)C(C)C)S(=O)(=O)c2ccc(OC)c(OC)c2)cc1	38
C/C(=N/NC(=O)CC1N=C(Cc2ccccc2)NNC1=O)c1cccnc1 (centres unmarked)	16.8
COc1ccc(-c2nc(CSCC(=O)N3CCN(C(=O)c4ccco4)CC3)c(C)o2)cc1OC	-15.2
COc1ccc(CNC(=O)c2cccc(-c3ccc(C)c4ccccc34)n2)cc1	-24
COc1cccc(OC)c1OCCCCn1cnc2ccccc2c1=O.O=C(O)C(=O)O	-14.4
Oc1c(Br)cc(C2N=C(c3ccccc3Cl)NO2)cc1Br (centres unmarked)	-2.5
CN(NC(=O)Nc1ccc(Cl)cc1)c1c(Cl)c(Cl)nn1C	9.5
CCOc1ccc(-n2c(C)nc3cc(C(=O)NCCN4CCOCC4)ccc32)cc1	-11.6
CCOC(=O)N1CCC2(O)CCCCC2C1c1ccc(F)cc1 (centres unmarked)	5.38
CCOC(=O)CCc1c(C)c(C#N)c2[nH]c3ccccc3n2c1=O	-15.5
CC(C#N)(NC(=O)CN1CCN(S(=O)(=O)c2ccc(Br)cc2Cl)CC1)C1CC1 (centres unmarked)	-40.9
Clc1ccccc1CN1CCC(Cc2ccccc2)CC1	-12.1
COCCCNC(=O)[C@H](Cc1c[nH]c2ccccc12)NC(=O)OCc1ccccc1	-2.63
CCO[C@H]1OC(C(=O)N2CCN(C)CC2)=C[C@@H](C)[C@@H]1CCCO	7.79
CC(C)Cn1c(SC(C)C(=O)NC2CC2)nnc1-c1ccccc1F (centres unmarked)	-8.04
O=c1[nH]c(=O)n(-c2ccc(F)cc2)c2c1C(C(F)(F)F)(C(F)(F)F)N=C(c1ccc(F)cc1)N2	3.05
COc1ccc([N+](=O)[O-])cc1/C=N/NC(=O)CNC(=O)C(c1ccccc1)c1ccccc1	-2.6
Cc1nc2c(sc(=S)n2Cc2ccco2)c(=O)n1CC(=O)Nc1ccccc1	-45.1
Cc1ccc(N=Cc2ccc(N(C)C)cc2)cc1	-2

Structure (SMILES)	hERG current change (%, negative = inhibition) at 10uM [%]
CCN(CC1CCCO1)C(=O)CCc1nnc(CCc2ccc(OC)cc2)o1 (centres unmarked)	10.9
O=C(COc1ccc(S(=O)(=O)NC2CCCCC2)cc1)NCc1cccnc1	2.91
Cc1cc2c(c(=O)n1C)C(Cc1ccccc1)C(C#N)=C(N)O2 (centres unmarked)	-8.26
CCN(CC)C(=O)c1ccc2nc3ccccc3nc2c1	-6.37
COc1cc(C(=O)NNC(=O)C2CC=CCC2C(=O)O)cc(OC)c1OC (centres unmarked)	-3.13
O=C(Oc1cccc(O)c1)C1CCCCC1	9.4
NCC(c1ccc(Cl)cc1Cl)c1c[nH]c2ccccc12 (centres unmarked)	19
Cc1ccc(SCC(=O)Nc2oc(C)c3c(C)n[nH]c(=O)c23)cc1C	-27.6
Cc1ccc(CNC(=O)C2CCCN(S(=O)(=O)c3c(C)[nH]c(=O)[nH]c3=O)C2)cc1 (centres unmarked)	-1.33
O=C(CN1C(=O)NC2(CCCc3ccccc32)C1=O)Nc1ccccc1OC(F)F (centres unmarked)	-2.35
COc1ccccc1N1C(=O)c2ccc(C(=O)Nc3cccc(C(C)=O)c3)cc2C1=O	1.69
Cc1ccc(C)c(-n2[nH]c3c4c(ccc3c2=O)C(=O)c2ccccc2C4=O)c1	-3.58
Cc1ccc(C(=O)N2CCN(C(=O)N3CCOCC3)CC2)cc1	-5.64
Cc1ccc(/C=C2\SC(N3CCCC3)=NC2=O)cc1	-22.4
COc1ccccc1C(=O)Nc1ccccc1SC(=O)c1ccccc1OC	24.5
Fc1cccc(-n2cc(-c3ccccc3)c3c(=S)nc[nH]c32)c1	18
CC(C)Oc1cc(C(=O)NC2CCCCC2)c2ccccc2n1	-3.64
O=C(Cc1ccccc1)Nc1ccc(C(=O)NCC2COc3ccccc3O2)cc1 (centres unmarked)	-1.22
Cc1cccc(-c2cc(C(=O)Nc3cccnc3)c3ccccc3n2)c1	-21.2
O=C(NC(=S)N1CCN(C2CCCCC2)CC1)c1ccccc1	-19.9
Cc1ccc(C(=O)Nc2ncc3c(Cl)cccc3n2)cc1	8.47
COCCSc1nnc(NS(=O)(=O)c2ccccc2)s1	9.74
